Sequences with one replicate were seen in a single cluster, so their values are uncertain.
Tested on: ATP
Test: switch fluorescence ratio, 500 uM ATP over buffer (Cy3 cluster intensity, sum of 5 cycles each) (fold (ratio)); higher = stronger signal-on switching upon ATP binding; sequences stand for … in TCGTCGGCAGCGTCAGATGTGTATAAGAGACAGTTTTTTTTTTTTTTTTTTTTTTTTT…TC
Conditions: aptamer strand: ATP DNA aptamer (quencher-CACCTGGGGGAGTATTGCGGAGGAAGG + anchor), 100 nM annealed; ATP concentration: 500 uM; one replicate
In short: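 Clusters with intensities outside 100-1000 RFU were excluded. The remaining Cy3-labelled switching-strand clusters on a modified Illumina MiSeq flow-cell had been annealed to 100 nM quencher-labelled ATP aptamer and imaged in selection buffer, then after 15 min with 500 uM ATP at 22 °C, for five cycles separated by NaOH stripping and re-annealing. The fluorescence ratio, averaged per switch-domain sequence, is each cluster's summed target-cycle Cy3 intensity over its summed buffer-cycle Cy3 intensity.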
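Note: ATP exposure 15 min at 22 °C before imaging.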

Row | Sequence | switch fluorescence ratio
1 | CAATGTAGCA | 1.04
2 | CTAGTGTGTC | 0.885
3 | GCAGTCAGCT | 1
4 | TGGTACGCGT | 1.03
5 | CGTAGTAAGA | 1.32
6 | AGGCGGTGAC | 1.04
7 | ACAGGTAGCA | 1.03
8 | GTTGTGCTAA | 0.987
9 | GACGGGTTAC | 2.2
10 | CAGGTCAAGA | 0.983
11 | GGGAAGCGGA | 1.08
12 | CAATCAAGGC | 1.07
13 | TGACACTCTA | 1.13
14 | CGAGATGGTC | 1.04
15 | ACAGTTTTA | 1.04
16 | GAAGAAAAAT | 1
17 | GCACTTGAGC | 1.06
18 | CCGGGCTACC | 1.48
19 | ACGTATGGG | 1.05
20 | CTCACCAAGA | 1.13
21 | TCAGTTCTTT | 0.987
22 | TATCGTCCCC | 1.02
23 | AGGAAATCCA | 1

Row | Sequence | switch fluorescence ratio
24 | TACAACTATG | 0.995
25 | CTGCCCGGTT | 1.03
26 | AACTGAATGG | 1
27 | AGTACGCTTA | 1.03
28 | GTGTAGACGA | 0.981
29 | TAATTTATAG | 0.969
30 | TAGCGAAGTC | 1.05
31 | ATTAGCGGCG | 0.956
32 | AGCAATAAGA | 1.9
33 | GGTAATCCTT | 1.02
34 | GCTTGGCGCA | 0.975
35 | ATGAATGGAT | 0.987
36 | GCCTGGAGTG | 1.09
37 | GCTCTTAAAT | 1.05
38 | CTTTGAAACG | 1
39 | AACAAAAGT | 1.03
40 | TTCTTAGAGA | 1
41 | GCGGAATGAA | 1.01
42 | TCGTGGTCCG | 0.948
43 | GGGATCGGCA | 0.991
44 | GTTAGGCAGT | 1.03
45 | TTTGCGAGG | 0.97
46 | ATGAGGAGTA | 1.06

Row | Sequence | switch fluorescence ratio
47 | CAGGTTCTGA | 0.964
48 | GCAATGCGGA | 3.4
49 | CCACGCGATG | 3.14
50 | CATAGTATAC | 1.29
51 | AATGGGCGGC | 1.01
52 | TTACCGGACA | 1.17
53 | CTTTAATTGG | 1.04
54 | CGCTAGAATT | 0.971
55 | TCGGTGTTGG | 0.982
56 | CGTGGTGTGC | 1.01
57 | GCACGAAAGG | 1.03
58 | GTCAGGAACG | 0.933
59 | CACGTCAGGA | 1.05
60 | AAAGAACAGC | 1
61 | CAGGAACGGA | 1
62 | CGCATTTGTG | 1.01
63 | ATATCAGCA | 0.955
64 | ATGTACGC | 1.04
65 | AGCAAATTAA | 1.03
66 | GTCGGTCAGG | 0.998
67 | AGCGGGGACG | 1.11
68 | TTCTCTCTA | 1.05
69 | CTTTCGTAAC | 1.1

Row | Sequence | switch fluorescence ratio
70 | TTATTCGCAT | 1.4
71 | AACACTGTCA | 1.09
72 | CAATTTGTTC | 1.01
73 | GTCGTAATCA | 0.971
74 | AGTATAGCAT | 0.988
75 | CCCATGGCTC | 1.06
76 | GTGCACGGTC | 1.01
77 | CGAAAGCCTT | 0.985
78 | AATGTGCAAG | 0.981
79 | GACACTGCGT | 1
80 | ACCGGGCTTC | 0.995
81 | TATTTGTCGA | 1.04
82 | TAACTTTATT | 1.02
83 | GCCTTTCTGT | 0.96
84 | TATAGGGGCG | 0.986
85 | CAGGCTAACT | 1.04
86 | CGCTGGAGCA | 1.04
87 | TGGATCCGAG | 1.05
88 | GCCGGCCCCG | 1.01
89 | AAATCATTCG | 0.993
90 | AATGCGACTT | 1
91 | GAAAGGACCG | 1.14
92 | GGGGACCCG | 1.01

Row | Sequence | switch fluorescence ratio
93 | CGTAATCGTG | 1.04
94 | TTTTGGATGG | 0.961
95 | GTTAGTGCTA | 0.991
96 | GGTGGGCGTC | 0.993
97 | ATACAAGAGG | 0.992
98 | AACGTCCGAG | 1.15
99 | TTTTTTATC | 1
100 | GGTCGGGAAT | 0.997
101 | TGCGAGTAT | 1.03
102 | AATTAGATTG | 1.01
103 | GTTAAAACAC | 1.04
104 | TCTTCGATTG | 0.928
105 | AAATGATTAA | 0.984
106 | CCGAGTTGCT | 1.28
107 | TTTAAGCAGC | 0.958
108 | CGGTCCACTC | 1.04
109 | GCCGAGATGG | 1
110 | CAATTGGTG | 1.02
111 | ACTGCCTCAA | 0.97
112 | CAGGATAGA | 0.997
113 | CCGATGGAGT | 1.5
114 | CCTGGTGTAC | 2.08
115 | CAGGTTCTTG | 1.02

Row | Sequence | switch fluorescence ratio
116 | ACGCACGCTG | 1.55
117 | CGGAGTGTTG | 0.944
118 | ACGGCGGA | 0.996
119 | TGCATCGACC | 1.45
120 | AGACACCCCG | 1.01
121 | AGTGGCTTAA | 0.96
122 | AGAAGAGCGG | 0.951
123 | ATCGTGTGGA | 1.07
124 | ATTGACCGAC | 1.56
125 | ACATGGCTG | 1.06
126 | TATTCGTCCG | 1.09
127 | TAGGTCACGG | 1.01
128 | AGTACGCTCT | 0.971
129 | GATGATCTGG | 0.994
130 | TAAGAGGAC | 0.955
131 | TCCTCAGGGT | 1.26
132 | ATGTGTTGCC | 0.978
133 | TCCATTGCTG | 1.03
134 | TCGCCTTTGC | 1.09
135 | AGGGGCCATA | 1.04
136 | AATGCTCTGT | 0.999
137 | CTGATAAAG | 0.937
138 | TTATATGTTC | 1.04

Row | Sequence | switch fluorescence ratio
139 | TGAATATTAG | 0.986
140 | GCGAATCGTC | 0.991
141 | TGAGATATTT | 1.01
142 | CGTTTCCGAT | 0.978
143 | ATAAATTACC | 1.02
144 | CGAGTATGC | 1.12
145 | CTACATAGGT | 1.07
146 | ACTGTACGCC | 1.36
147 | CTCACGCTCA | 1.65
148 | CCGTGAGATC | 0.998
149 | CAATTTTGTT | 1.02
150 | GGGCGGTGTG | 1.04
151 | GCACGCCACA | 1.52
152 | AGGCTTCATG | 1.03
153 | ACTGCGGCCT | 1.05
154 | CGTGGCCAG | 0.927
155 | GGTCATATGG | 0.997
156 | AGAATCTTAG | 0.972
157 | AAGCACGAAC | 1.47
